# Results: the antibiotic and cytotoxicity screens of Wong et al. (2023)
# Some of the results follow.
# How the values were obtained:
# HSkMC = human skeletal muscle cells; assay: cytotoxicity call (relative viability < 0.9); conditions: 10 µM
# HepG2 = assay: cytotoxicity call (relative viability < 0.9); conditions: 10 µM
# S. aureus RN4220 = assay: growth inhibition call (relative growth <= 0.2); conditions: 50 µM
SMILES,cytotoxicity call (HSkMC),cytotoxicity call (HepG2),growth inhibition call (S. aureus RN4220)
Cc1noc(C)c1NC(=O)Nc1ccc2c(c1)CC(=O)N([C@@H](C)CO)C[C@@H](C)[C@H](CN(C)Cc1ccc(Oc3ccccc3)cc1)O2,inactive,inactive,inactive
Cc1ccc(S(=O)(=O)Nc2ccc3c(c2)C(=O)N([C@H](C)CO)C[C@@H](C)[C@H](CN(C)Cc2ccc(Oc4ccccc4)cc2)O3)cc1,active,active,inactive
O=C(C[C@@H]1CC[C@H]2[C@@H](COC[C@H](O)CN2C(=O)Nc2cccc(Cl)c2)O1)NCc1ccccc1F,inactive,inactive,active
COc1ccc(NC(=O)N(C)C[C@H]2OCc3ccccc3-c3c(n(C)c4ccccc34)C(=O)N([C@H](C)CO)C[C@H]2C)cc1,inactive,inactive,inactive
C[C@@H]1CN([C@@H](C)CO)C(=O)CCCn2cc(nn2)CO[C@H]1CN(C)S(=O)(=O)c1ccc(-n2cccn2)cc1,inactive,inactive,inactive
COc1ccc(CN(C)C[C@@H]2OCCCC[C@@H](C)Oc3ccc(NC(=O)c4ccccc4)cc3C(=O)N([C@@H](C)CO)C[C@@H]2C)cc1,inactive,inactive,inactive
CC(C)NC[C@H]1CCC(=O)N1,inactive,inactive,inactive
COCC#Cc1ccc2c(c1)O[C@@H](CN(C)C(=O)C1CCOCC1)[C@H](C)CN([C@H](C)CO)S2(=O)=O,inactive,inactive,inactive
C[C@@H]1CN([C@H](C)CO)C(=O)c2cc(NC(=O)CCN3CCOCC3)ccc2O[C@@H]1CN(C)S(=O)(=O)c1ccccc1,inactive,inactive,inactive
CCNC(=O)C[C@@H]1CC[C@H](NC(=O)C2CCOCC2)[C@@H](CO)O1,inactive,inactive,inactive
CO[C@@H]1CN(C)C(=O)c2ccc(NC(=O)Nc3ccc4c(c3)OCO4)cc2OC[C@@H](C)N(C(C)=O)C[C@H]1C,inactive,inactive,inactive
COc1ccc(COC[C@]23NC(=S)N[C@H](c4ccccc4O2)[C@H]3CO[Si](C)(C)C(C)(C)C)cc1,inactive,inactive,inactive
CN(C)CC(=O)Nc1ccc2c(c1)C(=O)N(C)[C@H]1CC[C@H](CC(=O)Nc3cccc(Cl)c3)O[C@@H]1CO2,inactive,inactive,inactive
C[C@H]1CCCCO[C@@H](CN(C)C(=O)Nc2ccc(F)cc2)[C@@H](C)CN([C@@H](C)CO)C(=O)c2cc(NC(=O)Nc3ccc(C(F)(F)F)cc3)ccc2O1,inactive,inactive,inactive
CC(=O)n1cc([C@H]2C=C(C(=O)N3CCN(Cc4ccccc4)CC3)O[C@@H](OCc3ccc(CO)cc3)C2)c2ccccc21,inactive,inactive,inactive
